Out of some 150,000 compounds screened, about 540 (0.36%) showed an effect of 50% or more. The list shows a part of the results.
test system: Plasmodium falciparum; assay: Primary screen in NF54 nanoGlo assay, in single point, at 2uM, 72h; a lower Z score goes with more inhibition; assay type: functional, Erythrocyte; details: timepoint 72 hour

Row | SMILES | % Inhibition [%] | Z score
1 | CN(CCC1CCN(c2ccncc2)CC1)C(=O)c1cc2sccc2[nH]1 | 4 | -0.66
2 | CN1CCN(C(=O)CN2CCCC[C@H](N3CCN(C)CC3)C2)CC1 | 1 | -0.22
3 | CCNc1nc(NCC)nc(Nc2ccc(Cl)c(Cl)c2)n1 | 1 | -0.14
4 | COc1cc(C(=O)O)cc(C(=O)N(C)Cc2cc(C)no2)c1 | 1 | -0.16
5 | Cc1cc2cc(NC(=O)C3(N)CCCC3)ccc2o1 | -17 | 2.94
6 | CN(Cc1cc(O)c2ccccc2n1)CC1CCN(CCc2ccc(F)cc2)CC1 | -11 | 1.92
7 | CC(C)C1CN(C(=O)c2cccc(CN)c2)CC(c2ccccc2)O1 (stereo unspecified) | -6 | 0.95
8 | O=C1CCCC1C1CCCN1C(=O)C(O)Cc1cccc(C(F)(F)F)c1 (stereo unspecified) | -6 | 0.96
9 | Cc1nc(NC(CO)CO)ccc1Br | -11 | 2.27
10 | CCNc1ncc(C(=O)N[C@@H]2CCCC[C@H]2OCc2ccccc2)cn1 | -3 | 0.57
11 | Cc1[nH]nc2ncc(NC(=O)[C@H]3CCCN(CC(F)(F)F)C3)cc12 | 6 | -1.21
12 | CCc1nc(NC[C@@H](c2ccncc2)N2CCOCC2)c2cnn(C)c2n1 | -5 | 1.08
13 | Cc1cc(-c2c[nH]c3ncccc23)nc2cc(F)ccc12 | 3 | -0.53
14 | Cc1ccccc1CN1CCC(CNC(=O)c2n[nH]c3c2COc2ccccc2-3)CC1 | -7 | 1.27
15 | CC(C)N1CCC(N2CC[C@H](C3CCN(c4ncccn4)CC3)C2)CC1 | -6 | 1
16 | O=C(CN1CCCCCC1)N1CCC2(CC1)CCC(O)(CN1CCc3ccccc31)CC2 | -17 | 3.07
17 | c1cc(NC[C@H]2CCCOC2)nc(-n2cnc3ccccc32)c1 | -12 | 1.79
18 | CNc1cc(N2CCC[C@@H]2CNc2nn3cc(C)nc3s2)ncn1 | 3 | -0.5
19 | O=S(=O)(Nc1ccc(N2CCC(NCCCN3CCc4ccccc43)CC2)cc1)c1ccccc1 | 8 | -1.44
20 | O=C1CN(C(=O)c2ccnc3ccccc23)CCN1Cc1ccccc1F | 68 | -13.41
21 | COc1ccc2c(C(=O)N[C@@H](C)c3csc(C)n3)cc(C)nc2c1 | -10 | 1.79

Row | SMILES | % Inhibition [%] | Z score
22 | C[C@@H](CCCC(C)(C)O)NCc1cc(O)c2cc(F)ccc2n1 | 0 | 0.05
23 | CCC1CCCCN1CCNC(=O)C(C)CN(C)C(=O)OC(C)(C)C (stereo unspecified) | -2 | 0.47
24 | CC(C)(C)c1nccc(N2CCC(NC3CCOCC3)CC2)n1 | -1 | 0.17
25 | CCNc1ncc(C(=O)NC2CCN(CCc3ccccc3)CC2)cn1 | -5 | 0.96
26 | Cc1c(CN2CCN(CCOc3ccccc3)CC2)[nH]c2ccc(F)cc12 | 6 | -1.19
27 | Cc1n[nH]cc1C1CCN(C(=O)[C@@H]2CN(C)C(=O)c3ccccc32)CC1 | -2 | 0.42
28 | Nc1cc(N2CCC(c3nc4cc(F)ccc4[nH]3)CC2)nc(N2CCOCC2)n1 | 52 | -10.32
29 | Cc1cccc(-c2cnc(-c3ccncc3)nc2C2CCN(C(=O)c3cc(CC(C)C)on3)CC2)c1 | 4 | -0.8
30 | F[C@H]1C[C@@H](CNCc2ccc3occc3c2)N(Cc2cncnc2)C1 | -9 | 1.33
31 | CN(C)c1nc2c(c(NCCCNc3cccnc3)n1)CCCC2 | -4 | 0.63
32 | N#Cc1cnn(-c2cc(Nc3ccc(OC(F)(F)F)cc3)ncn2)c1N | 12 | -1.89
33 | NC(=O)[C@@H]1CCCN1C1CCN(C(=O)c2cc3c(Br)cccc3[nH]2)CC1 | -5 | 0.9
34 | C[C@@H](c1cccc(-c2cc(-n3cccn3)ncn2)c1)N1CCCC1 | 7 | -1.4
35 | O=C(Cc1c[nH]c2ccccc12)Nc1cc(N2CCN(c3ccccc3)CC2)ncn1 | -6 | 1.05
36 | Cc1nc(N)ccc1-c1cccc(C(=O)N2CCCC[C@@H]2CN2CCCC2)c1 | 8 | -1.36
37 | C[C@@H](c1ccccc1F)N1CCN(CC(=O)N(C)C(C)(C)C#N)CC1 | -9 | 1.6
38 | Cc1ccc2cc(-c3ccc(C(=O)N4CC(N5CCCCC5)C4)cc3)ccc2n1 | -7 | 1.21
39 | c1cc(CN2CCC(c3c[nH]c4ncccc34)CC2)c2c(c1)OCCO2 | 3 | -0.45
40 | O=C(NCCn1ccccc1=O)N1CCC2(c3ccccc3)C(C1)C2(F)F (stereo unspecified) | -1 | 0.12
41 | Cc1ccc(N2CCC(N3CCCN(C)C4(CCN(C)CC4)C3)CC2)cc1 | -16 | 3.35
42 | Cc1nc(-c2ccc(CNc3nccc(-c4ccncc4)n3)cc2)no1 | 4 | -0.92

Row | SMILES | % Inhibition [%] | Z score
43 | CCOc1cc(NC2CCN(c3nc(OC)cc(C(F)(F)F)n3)CC2)ncn1 | 1 | -0.1
44 | CCOCc1cn(Cc2nn(C)cc2Cl)nn1 | -1 | 0.21
45 | CCN(C[C@H](O)c1ccc(C)cc1)C(=O)c1noc2c1CC(C)(C)CC2 | -5 | 0.9
46 | Cc1nc2c(C#N)cnn2c(O)c1CC(=O)Nc1ccc(-c2nc3ccccc3[nH]2)cc1 | -8 | 1.57
47 | CC(C)N1CCN(CCCN2CCC(OC3CCCC3)CC2)CC1 | 8 | -1.61
48 | Cc1ccc(C)c(OCCN(C)c2cc(C3CC(O)C3)nc(C)n2)c1 (stereo unspecified) | -8 | 1.41
49 | CCn1cc(NC2CCN(c3cccc(-c4ccc(F)cc4)c3)CC2)nn1 | -5 | 1.01
50 | CC(C)c1noc(-c2ccnc(NCCOc3cccnc3)c2)n1 | -12 | 2.09
51 | COc1ccc2[nH]cc(C3=CCN(c4ccc5nnc(-c6ccccc6F)n5n4)CC3)c2c1 | 51 | -8.85
52 | CCCOc1cc(CNc2cnc3cc(F)c(F)cc3n2)ccn1 | 3 | -0.49
53 | Cc1noc(C)c1-c1c(-c2ccccc2)ncn1CCOc1cccc2cccnc12 | 0 | 0.07
54 | COC1(C(=O)O)CCN(C(=O)[C@@H]2C[C@@H]3C[C@@H]3C2)C1 (stereo partly specified) | 2 | -0.33
55 | CC(C)NC(=O)c1ccnc(N2CC(CO)C(CN3CCN(C)CC3)C2)c1 (stereo unspecified) | 2 | -0.36
56 | COCCCn1cnnc1CNc1cc([C@H]2C[C@@H](N)C2)nc(N(C)C)n1 | -1 | 0.15
57 | O=C(NC1CNCC1O)c1cccc(-c2ncc(F)c(N3CCCC3)n2)c1 (stereo unspecified) | 4 | -0.72
58 | COCCN1CCC(Nc2ncnc3c(C)cccc23)CC1 | 4 | -0.91
59 | CN1C[C@@]2(CCCN(C(=O)CCN3CCCCCC3=O)CC2)OC1=O | -16 | 2.72
60 | CO[C@H]1C[C@H]2CC(NC3CCCN(c4cccnn4)C3)C[C@H]2C1 (stereo partly specified) | -6 | 1.28
61 | Nc1nc(NC2CCN(c3cccnn3)CC2)nc2sccc12 | -3 | 0.45
62 | CN1CCN(CC[C@H]2CCCCN2Cc2cnn(-c3ccc(F)cc3)c2)CC1 | 3 | -0.51
63 | COc1ccc2cc(C(=O)NC3CCN(c4nc(C)nc5c4CCCC5)CC3)[nH]c2c1 | -11 | 1.94

Row | SMILES | % Inhibition [%] | Z score
64 | O=C(c1cc(C2CC2)[nH]n1)N1CCN2C(=O)OCC2C1 (stereo unspecified) | -6 | 1.15
65 | CC(C)(C)[C@@H]1NC(=O)CC[C@H]1NCc1cc2ccccc2[nH]1 | -4 | 0.78
66 | Cn1ccnc1[C@@H](O)C1CCN(C(=O)NCc2ccnc3ccccc23)CC1 | 3 | -0.56
67 | CC1CCN(CCCCNC(=O)N2CCC(C)[S+]([O-])CC2)CC1 (stereo unspecified) | -1 | 0.08
68 | O[C@@H]1CCCC[C@H]1Oc1ccc(Nc2ncnc3ccc(F)cc23)cc1 | -7 | 1.39
69 | Cc1ncc(COc2c(C)c(C)nn2C)o1 | 11 | -2.42
70 | C[C@H]1CN(C2CCOCC2)CCN1C(=O)NCc1cccc(-c2cccnc2)c1 | -1 | 0.29
71 | Cn1nc(C(=O)Nc2cnc(CC3CC3)nc2)cc1C(F)(F)F | 1 | -0.26
72 | COCCCN1CCC(Nc2ccc3c(Cl)ccc(C)c3n2)CC1 | -3 | 0.68
73 | CC(NC(=O)OC(C)(C)C)C1CCN(C[C@@H]2CCCN2C(=O)OC(C)(C)C)CC1 (stereo partly specified) | 33 | -6.49
74 | CC(=O)N1CCN(C(=O)[C@H](C)N2CCC(c3cccc4cnccc34)CC2)CC1 | -7 | 1.07
75 | O=C(c1cc(C2CC2)[nH]c(=O)c1)N1CC2CC3CC2C1C3O (stereo unspecified) | -1 | 0.11
76 | O=C(c1ccc(-c2ccc3ncccc3c2)cc1)N1CCN(CCCO)CC1 | -9 | 1.61
77 | COc1cccc(-c2ccnc(Nc3ccccc3)n2)c1 | -1 | 0.15
78 | CNc1nc(C)c(-c2ccnc(Nc3cccc(S(C)(=O)=O)c3)n2)s1 | 47 | -7.17
79 | Fc1cnc(Nc2cccc(OC3CCCC3)c2)nc1 | -9 | 1.61
80 | Fc1ccc(N2CCC(N3CCC[C@H](Cn4ccnc4)C3)CC2)cc1F | 16 | -3.41
81 | Cn1c(NCc2cccnc2)nc2c(F)cccc21 | 0 | -0.02
82 | C[C@H]1CCCN(c2cc(NC3CCN(c4nccs4)CC3)ncn2)C1 | -12 | 1.85
83 | CCOC(=O)[C@@](C)(NC(=O)CS(=O)(=O)CC(C)C)C(C)C | -3 | 0.44
